The list shows a part of the results.

The assay concerns PfAP2-HC AP2 domain (GST-tagged). Kind of assay: gcPBM binding intensity (ln(normalized median fluorescence intensity)); higher = stronger DNA binding. In a few lines: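 An Agilent 4 × 180k array of primer-extended double-stranded 36-bp intergenic genomic probes, with negative controls, was incubated for 1 h with GST-tagged P. falciparum DNA-binding domains expressed in E. coli. Alexa488 anti-GST antibody detected bound protein, scanned at 488 nm. Binding intensity is the highest Masliner-normalised natural-log median intensity across replicate spots of either probe orientation.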
Regarding “TTTATTTATTATTAAAGTACTAAATCATATTATTAT [XGTACX_site992]”, the “gcPBM binding intensity (ln)” value came to 9.55.
The result for “TTTTCTTTTTTCTGTTGTACTAAAAATAATTTTGTA [XGTACX_site5171]” reads 9.63; that for “TATTTATATATTATGTGTCCACATGTAAGCTATCTT [XGTACX_site3887]”, 9.64.
The result for “CCACTAATAAATATTACACACATATATATATATATT [CACACA_site3128]” reads 9.91.
The result for “TATACATTATCTTATGCATGCGCATCTGCATATAAA [TGCATGCA_site266]” reads 9.64; that for “ATTCACTAAAAAATTGCATGCAATAAATTTTTTTTT [TGCATGCA_site962]”, 9.46; that for “TTTTATTGTTGTTATACACACCATATAAAATATTTC [CACACA_site4983]”, 9.73.
Consider “AATTGATTTATATATTGTACATATAAATTTATGTAT [XGTACX_site7785]”, for which the “gcPBM binding intensity (ln)” value is 9.75.
As for GGGAAAATAAATAAAGTGCAGATATTAAAAGTTGTA, the figure is 9.82; as for “TTGCATATTTCTAATTGTACATTATTTTATTTTATA [XGTACX_site8451]”, 9.79; as for “AATAAAAAATATATGAGTACTAAATTGTTTTCTTAA [XGTACX_site8573]”, 9.61.
As for “CTCAACGATAGAGAAACATGCAAGTATAAGCAACTA [TGCATGCA_site771]”, the figure is 9.73; as for “ATATTTATCTTTTTATGTACATATGCCCCTTTTCTG [XGTACX_site673]”, 9.7.
As for “GAGTTATTTCTTATTTAAGCATTCTACATATATATA [CACACA_negctrl_site239]”, the figure is 9.79; as for “AAGAAAATTAAATTAACACACATAAATATATATATA [CACACA_site1664]”, 9.79; as for “ATTTTACATATTTGCACACATATATTTAAATACATA [CACACA_site4627]”, 9.94.
As to “GTCCTTATGGATGATAAATTATTTTAAATATTCTAT [XGTACX_negctrl_site200]”, the “gcPBM binding intensity (ln)” value is 9.47.
The result for “TCTTGGTTATTAAAAAAAAAAAAATATATTTTTCCT [TGCATGCA_negctrl_site445]” reads 9.32; that for “TCATATGTTTCATGTTGTACATTGAAAGTTTGGCTA [XGTACX_site3202]”, 9.36; that for “GTTCTAATATATTGCACACGTAAAAATATAGGTAAT [CACACA_site886]”, 9.93.
As for “AAATATGTACATATTATATATATATAATATATATTG [TGCATGCA_negctrl_site438]”, the figure is 9.65; as for “TGTTAATTAAAGGACTGTACACTAATAATTCTATAA [XGTACX_site5195]”, 9.6; as for “TAATTGTACGCCAATACACACAGAATTAGAATGTAG [CACACA_site102]”, 9.93.
The result for “ATAAATAAATGGTGTTGTACTCTATTATATATATAT [XGTACX_site7835]” reads 9.78; that for “AAAAAAAAAATATATATATATATATATATATAATTT [GTGCAC_negctrl_site32]”, 9.4; that for “AATAAATATAGATTCACACACAAACATATATAAATA [CACACA_site7814]”, 10.1.
With “AAGAAAAAAATTTATACAAGAATTTTTTATTATTAA [TGCATGCA_negctrl_site587]”, the “gcPBM binding intensity (ln)” value is 9.45.
As for “AAAAAAAAAAAACACACACACACATAAATATATATA [CACACA_site149]”, the figure is 10.6; as for “TATTAACATATATAAAGTACATTAAACAACATTGTA [XGTACX_site7667]”, 9.56.
On to “TGTAAATTTGGCATCACACATAAATAAACATATAAA [CACACA_site4497]”, for which the “gcPBM binding intensity (ln)” value is 9.74.
As to “AACATTCTAAAACACACACACACATATATATATATA [CACACA_site1052]”, the “gcPBM binding intensity (ln)” value turned out to be 10.7.
The result for “TACACAAGCGGACACACACACATATATATATATATA [CACACA_site4832]” reads 10.3; that for “TATATATAAAAAAGCACACATACATACATACATAAT [CACACA_site890]”, 10.
As for “TTTTCACTTTTAAAAACATGCATACTTTATAAAATA [TGCATGCA_site967]”, the “gcPBM binding intensity (ln)” value came out at 9.37.
As for “ATGTCTATAATAAGAACACACATATATTTAATTTAA [CACACA_site7394]”, the figure is 9.65; as for “TGGTAAAGGAGCAAGATGATAAATCTCCATAACTTT [CACACA_negctrl_site492]”, 9.44.
The result for “CTATATTCGTTTAATAGTACATATATAACTAGACAA [XGTACX_site5770]” reads 9.45; that for “TATATATATATGTATACACACATACAAATATGTAAA [CACACA_site9238]”, 9.74.
As for “GTTGGTACCTTACTTTTACACACTTTTTTTTTTTTT [CACACA_site8441]”, the figure is 9.94; as for “AAAAGAAATATTTATACACACACACTAACATATATA [CACACA_site8580]”, 10.7; as for “GTGAAAAAAAACATATGTACTTATACACTAATCTAT [XGTACX_site7600]”, 9.73.
As to “TTATATATAATTACATGTACGTAGTATTATTTAAAT [XGTACX_site3418]”, the “gcPBM binding intensity (ln)” value came to 9.39.
As for “TTATCATTTTAATGGTGTACTCAATAAAAACTTTAA [XGTACX_site4595]”, the figure is 9.13; as for “TACACAAGAAAATTCACACACACACCCATATATATA [CACACA_site3879]”, 10.7.
Turning to “AACATACATGTATATAGTACATATTACATCTGATAC [XGTACX_site3649]”, the “gcPBM binding intensity (ln)” value came out at 9.84.
In the case of “ATGTAATTATAAGATTAATATACATAATTATATGTA [GTGCAC_negctrl_site458]”, the “gcPBM binding intensity (ln)” value was 9.57.
The result for “CATAGATACATACACGCACACACATATATATATATA [CACACA_site13]” reads 10.3; that for “GTATTACCTTATTATTGTACTTTCATGATATATATG [XGTACX_site5382]”, 9.84.
As for “TTAATGAATGGACACACACACATATATATATATATT [CACACA_site5294]”, the figure is 10.2; as for “ATAAAAAAAATTTGCACACCTTCAAAGTAATATATA [CACACA_site1584]”, 9.8.
Regarding “TAATTTTTTTTTTTTTTTTTTGTACTTCATTTTTAT [CACACA_negctrl_site1395]”, the “gcPBM binding intensity (ln)” value came to 9.58.
As for “AAAAAAAAAAAAAGTACATGCAATATGGATCTTAAA [TGCATGCA_site367]”, the figure is 9.74.
The result for “CATATAAAAGGACACACACACACATATAAATATGTA [CACACA_site6568]” reads 10.4; that for “TGCTATTTTATTTATTCTTTTATAAAAGTATAATAT [XGTACX_negctrl_site358]”, 9.64.
With “ATTTTTATAGAATGAACACACATATTATAGCATTTA [CACACA_site6842]”, the “gcPBM binding intensity (ln)” value was found to be 9.67.
The result for “ATTATAATGTTAATGTGTACATATGATTCCTTAATT [XGTACX_site181]” reads 9.71.
The result for “TATGTTTTTACATATTGTACATATTCTTGTAATACG [XGTACX_site1179]” reads 9.66.
Consider “TATGTGTGCAAAAACTGTACACATTAAAGGTATATA [XGTACX_site7627]”, for which the “gcPBM binding intensity (ln)” value was found to be 10.1.
As to “ATAAATAAATAAGTACATATATATATGTATATATAT [TGCATGCA_negctrl_site223]”, the “gcPBM binding intensity (ln)” value was 9.84.
The result for “ATGACATGTTCTAAATGTACATTTTTTAACCCTTTT [XGTACX_site1858]” reads 9.68; that for “TATGGTTACATTATATGTACTAAACGAATATTTTTA [XGTACX_site5694]”, 9.57; that for “TATACAAGTATATAGGTGCATATATAAGTATATATT [GTGCAC_site9994]”, 9.69.
As for “TACTTTCAAAAGATCACACATATATATATATATATA [CACACA_site5630]”, the figure is 9.67; as for “TAATAACATACAGACACACACGTAAAAGCACGTGTA [CACACA_site4299]”, 10.2; as for “TAATATATATATATATGTACATATATATTATGTATA [XGTACX_site4690]”, 9.54.
For the sequence “AGATTATTTAGAATGTGTACATATTACACATACATG [XGTACX_site8634]”, the “gcPBM binding intensity (ln)” value amounted to 9.65.
As for “ACTACATTATGTCATACATGCATACATACGTGGTTT [TGCATGCA_site732]”, the “gcPBM binding intensity (ln)” value is 9.81.
The result for “AGTAATTTAAGGAATACACACAAGAAAAAAATAAGA [CACACA_site6177]” reads 10.1; that for “CATTAAAAGTATAATTGTACTTTTCATTTATATATT [XGTACX_site7536]”, 9.63.
As for “GTATACCTTTTGACATGTACGTATGTATATTTGGGT [XGTACX_site720]”, the figure is 9.78.
As for “TTTTTAACCAAACATCAAAACATATTTTTTTGTTAT [CACACA_negctrl_site385]”, the figure is 9.48; as for “CATACATACAAACACACACACACACCCATATATATA [CACACA_site2918]”, 11.1.
In the case of “AATATTTTCTTGTACGCATGCACATCCAAATTATAT [TGCATGCA_site873]”, the “gcPBM binding intensity (ln)” value amounted to 9.89.
The result for “TGACCTGTTCAGGTAACACACATATAAACACATACA [CACACA_site4186]” reads 9.91; that for “ATATATTAATAATTTTGTACGCATTTCCTTTTTATT [XGTACX_site1638]”, 9.68.
As for “GAAAATATTTCCGTATGTACTTATTTTAGTCTACTA [XGTACX_site471]”, the figure is 9.74.
As for “AAAAAAAAAAAAAAATGTACAAATAAAGAAATATGA [XGTACX_site4371]”, the figure is 9.58; as for “ATACCCACTTAAAATACACACACACCGAAAAAAAAA [CACACA_site8867]”, 10.2; as for “AGGTTCTTTTTAAATGGTACACATAATTTGAAGATA [XGTACX_site400]”, 9.26.
For “GTGTATAGAATGGTTTCTTTTAAGGTTTTTATTTTT [CACACA_negctrl_site564]”, the “gcPBM binding intensity (ln)” value stood at 9.84.
As for “TCTTAAAAGGGGAATGGAATGGAGAAAATGAAATAA [GTGCAC_negctrl_site30]”, the figure is 9.43; as for “ATGAATACAAAATTATACAAAATTATCAAAAGTATG [CACACA_negctrl_site1453]”, 9.77; as for “CTTTTTATTTAGAACACACACAAAAAAAAAAAAAAA [CACACA_site1761]”, 9.41.
As for “TGCAGTCTGGAGAAACGTACATAGTATCTGGTAGCT [XGTACX_site4937]”, the figure is 9.56; as for “ATACATAAATATATATGTACATATATATATATATAT [XGTACX_site1055]”, 9.75; as for “AAAATATATTTAAATTGTACACGTTACCATAACAAT [XGTACX_site2598]”, 9.66.
As for “TTTTTTAAATGTATTAAAATTATATATATATATATA [GTGCAC_negctrl_site570]”, the figure is 9.34; as for “ATACATAAATTTAGAAGTACATAACAAATTTTTAAA [XGTACX_site7448]”, 9.68.

For the origin of these results see the supplement of paper PMC11417369.
